{"source": "PubChem BioAssay AID485344", "about": "(National Center for Advancing Translational Sciences (NCATS), 2010)", "note": "Out of some 340,000 compounds screened, about 6,900 (2%) were called active. Cut-off read from the data, not from the text of the source: active = inhibition above about 30%; inactive = below that, where a call was filed. The entries are a selection whose mix differs from that of the whole data set. The source gives no active or inactive call for entries shown without one.", "data": [{"target": "D(2) dopamine receptor (Homo sapiens) (UniProt P14416)", "sequence (P14416 whole entry, looked up)": "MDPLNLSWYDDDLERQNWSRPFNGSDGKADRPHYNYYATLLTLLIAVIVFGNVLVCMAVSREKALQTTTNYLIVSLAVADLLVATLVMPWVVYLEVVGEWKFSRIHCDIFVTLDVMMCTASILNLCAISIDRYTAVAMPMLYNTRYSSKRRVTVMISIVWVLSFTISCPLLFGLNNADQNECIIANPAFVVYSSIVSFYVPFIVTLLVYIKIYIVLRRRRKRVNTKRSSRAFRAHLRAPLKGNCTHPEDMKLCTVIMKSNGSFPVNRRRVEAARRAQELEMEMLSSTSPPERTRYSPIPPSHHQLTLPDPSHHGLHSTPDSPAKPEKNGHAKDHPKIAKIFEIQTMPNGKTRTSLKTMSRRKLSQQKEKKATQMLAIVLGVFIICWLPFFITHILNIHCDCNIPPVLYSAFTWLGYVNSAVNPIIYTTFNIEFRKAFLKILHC", "test": "HTS Assay for Allosteric Antagonists of the Human D2 Dopamine Receptor: Primary Screen for Antagonists; note: 0% is about no effect", "details": "HEK293 TREx D2 cells, calcium flux, dopamine EC80; at 10 µM; stronger effect = higher value", "how_it_was_run": "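Inhibition of EC80 dopamine-driven calcium flux, recorded kinetically, defines activity here; cells are a tetracycline-induced HEK293 T-REx line expressing force-coupled D2.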", "values": [{"smiles": "Cc1ccccc1OCCSc1nc2ccc(NC(=O)c3cccc(F)c3)cc2s1", "inhibition": "9.9%"}, {"smiles": "CN(C)CCCNc1cc(N2CCN(C3CCCCC3)CC2)c2noc3c2c1C(=O)c1ccccc1-3", "inhibition": "13.4%"}, {"smiles": "COc1cc2ncc3c(-c4ccc(C)cc4)nn(-c4ccc(F)cc4F)c3c2cc1OC", "inhibition": "8.81%"}, {"smiles": "CCC(C)(C)NC(=O)C(c1cccn1C)N(Cc1ccc(OC)cc1)C(=O)Cn1nnc2ccccc21", "note": "(configuration not stated)", "inhibition": "active: 30.5%"}, {"smiles": "CC1=C(c2ccc(F)cc2)S(=O)(=O)N=C1N1CCC(C(=O)NCCc2cccc(C)c2)CC1", "inhibition": "-5.46%"}, {"smiles": "CCN1CCCC1CNC(=O)c1cc2c(OC)c(OC)c(OC)cc2[nH]1", "note": "(configuration not stated)", "inhibition": "active: 82.7%"}, {"smiles": "COc1cccc(-c2nc(CS(=O)(=O)CC(=O)NCc3cccc(Cl)c3)c(C)o2)c1", "inhibition": "5.47%"}, {"smiles": "Cc1ccc(CCNC(=O)C2CCCN(c3nnc(C)c4c(C)n(-c5ccccc5)nc34)C2)cc1", "note": "(configuration not stated)", "inhibition": "-8.88%"}, {"smiles": "Cc1c(C(=O)NCc2cccc(Br)c2)oc2ccc3c(c12)C(=O)CC(C)(C)O3", "inhibition": "-1.45%"}, {"smiles": "CCN(CC)CCCNC(=O)c1ccc(Cn2c(SCc3ccccc3)nc3cccnc32)cc1", "inhibition": "3.64%"}, {"smiles": "COc1ccc(-c2nc3sc(CCNC(=O)C(=O)Nc4cccc(NC(C)=O)c4)c(C)n3n2)cc1", "inhibition": "-6.23%"}, {"smiles": "Nc1nn(-c2ccccc2)nc1C(=O)OCc1ccc(Cl)cc1", "inhibition": "1.52%"}, {"smiles": "O=C(CSc1ncc(-c2ccccc2)n1C1CCCC1)N1CCc2ccccc21", "inhibition": "active: 30.7%"}, {"smiles": "O=C(CN1CCN(CCC(=O)Nc2ccccc2F)CC1)Nc1ccc(Cl)cc1", "inhibition": "active: 129%"}, {"smiles": "COc1c(C)cccc1C(=O)Nc1ccc(-c2nc3ccccc3s2)c(Cl)c1", "inhibition": "6.61%"}, {"smiles": "Cc1ccc(NC(=O)CC2Oc3ccccc3NC2=O)cc1C", "note": "(configuration not stated)", "inhibition": "4.88%"}, {"smiles": "COc1ccc(C2=C(N3CCN(c4cccc(C)c4C)CC3)c3ccccc3C2=O)cc1", "inhibition": "-2.31%"}, {"smiles": "Cc1cccc(N2CCN(CCCNC(=O)c3ccc(NC(=O)C4=CSCCO4)cc3)CC2C)c1", "note": "(configuration not stated)", "inhibition": "active: 36.3%"}, {"smiles": "Cc1c(C(=O)NCc2cccc(Cl)c2)sc2nc3n(c(=O)c12)CCCC3", "inhibition": "6.64%"}, {"smiles": "CN1C(=O)Cc2cc(S(=O)(=O)NCc3ccccc3Cl)ccc21", "inhibition": "-6.38%"}, {"smiles": "O=C(c1ccc(Br)cc1)N(Cc1ccco1)c1ccccn1", "inhibition": "-10.7%"}, {"smiles": "O=C(Nc1ccc2c(c1)OCO2)c1cnn2cccnc12", "inhibition": "active: 68.9%"}, {"smiles": "CCc1ccc(CNC(=O)c2cccc(-n3c(C)nc4cccnc43)c2)cc1", "inhibition": "0.603%"}, {"smiles": "CCCc1ccc(OCc2ccc(C(=O)Nc3ccccc3C(=O)OC)o2)cc1", "inhibition": "-3.06%"}, {"smiles": "Cc1ccc(-n2c(C)nc3c(cnn3-c3ccccc3)c2=O)cc1", "inhibition": "18.2%"}, {"smiles": "COc1ccc(N(CC(=O)N2CCCCC2)S(=O)(=O)c2ccc(OC)c(OC)c2)cc1", "inhibition": "8.67%"}, {"smiles": "Cc1ccc2oc(C(=O)N3CCC(c4nc5ccccc5s4)CC3)c(C)c2c1", "inhibition": "-8.09%"}, {"smiles": "CC(=O)c1ccc(NC(=O)CCn2cccn2)cc1", "inhibition": "8.86%"}, {"smiles": "CCc1cccc(NC(=O)C2CCCN2S(=O)(=O)c2ccc3nc(-c4ccccc4)[nH]c3c2)c1", "note": "(configuration not stated)", "inhibition": "-1.74%"}, {"smiles": "CCOc1ccc(NC(=O)[C@@H](NC(=O)c2ccco2)C(C)C)cc1", "inhibition": "active: 39%"}, {"smiles": "Cc1ccc(OCCN2CCN(c3nc(NCc4ccco4)c4ccccc4n3)CC2)cc1", "inhibition": "active: 37.6%"}, {"smiles": "COc1ccc(CNC(=O)C(CC(C)C)NS(=O)(=O)c2ccc3c(c2)oc(=O)n3C)cc1", "note": "(configuration not stated)", "inhibition": "-23.4%"}, {"smiles": "CCc1cccc(NC(=O)c2cc3c(=O)oc4ccc(C)cc4c3s2)c1", "inhibition": "26.4%"}, {"smiles": "CCCCN(CC)C(=O)c1ccc2c(c1)NC(=O)c1ccccc1S2", "inhibition": "2.48%"}, {"smiles": "CSc1nnc(NC(=O)c2cc(=O)c3cc(C)c(C)cc3o2)s1", "inhibition": "18%"}, {"smiles": "Cc1ccc(S(=O)(=O)c2cn(Cc3ccccc3)c3cc(N4CCCC4)c(F)cc3c2=O)c(C)c1", "inhibition": "5.51%"}, {"smiles": "CCOc1c(CNCCSc2nnnn2C)cccc1OC", "inhibition": "2.54%"}, {"smiles": "Cc1cccc(C)c1NC(=O)C(=O)NCC(c1ccc2c(c1)OCO2)N1CCN(C)CC1", "note": "(configuration not stated)", "inhibition": "-10.5%"}, {"smiles": "COc1ccc(OC)c([C@@H]2Nc3ccc(C(=O)O)cc3[C@@H]3C=CC[C@@H]32)c1", "inhibition": "-5.67%"}, {"smiles": "COc1ccc(C)cc1NC(=O)c1nnn(CC(=O)Nc2c(C)cccc2C)c1N", "inhibition": "-4.25%"}, {"smiles": "Cc1ccc(C)c(S(=O)(=O)c2nnn3c2nc(NC2CCCC2)c2sccc23)c1", "inhibition": "-25.3%"}, {"smiles": "CC1CCC(NC(=O)c2ccc3c(c2)N(Cc2ccccc2F)C(=O)c2ccccc2S3(=O)=O)CC1", "note": "(configuration not stated)", "inhibition": "9.7%"}, {"smiles": "CCOc1ccccc1Oc1ncnc2c1oc1ccccc12", "inhibition": "-18.3%"}, {"smiles": "Cc1ccc(S(=O)(=O)Nc2ccc(-c3ccc(N4CCCCCC4)nn3)cc2)c(C)c1", "inhibition": "-8.24%"}, {"smiles": "CCOc1ccccc1CNCc1c(C(=O)O)n(Cc2ccccc2)c2cc(OC)ccc12", "inhibition": "17.9%"}, {"smiles": "CCOC(=O)c1cc(C)n(CC2CCC(C(=O)Nc3cccc(C(C)=O)c3)CC2)c1C", "note": "(configuration not stated)", "inhibition": "-5.02%"}, {"smiles": "CCOc1ccccc1C1C(C(=O)Nc2ccccc2)=C(C)Nc2nc(-c3ccccc3)nn21", "note": "(configuration not stated)", "inhibition": "-13.3%"}, {"smiles": "COc1ccccc1OCc1nc2ccccc2n1Cc1ccccc1", "inhibition": "-14.9%"}, {"smiles": "CCOc1ccccc1NCc1nnc2n1CCCCC2", "inhibition": "-26.9%"}, {"smiles": "CC(C)NC(=O)CSc1cn(CC(=O)N2CCCCCC2)c2ccccc12", "inhibition": "-7.55%"}, {"smiles": "COc1ccc(N2CCN(C(=O)c3cnc(N4CCOCC4)c4ccccc34)CC2)cc1", "inhibition": "4.54%"}, {"smiles": "CCc1ccccc1N(C)C(=O)c1nn(-c2ccc(OC)cc2)c(=O)c2c1c1ccccc1n2C", "inhibition": "-10.4%"}, {"smiles": "CCOc1ccc(CNc2cc(C)nc3nc(-c4cccc(C)c4)nn23)cc1OC", "inhibition": "5.15%"}, {"smiles": "Cc1cccc(NC(=O)c2ccc3oc(=O)c(S(=O)(=O)c4ccc(F)cc4)cc3c2)c1C", "inhibition": "-14.2%"}, {"smiles": "CC1CCc2c(sc3nnn(Cc4ccccc4Cl)c(=O)c23)C1", "note": "(configuration not stated)", "inhibition": "-6.96%"}, {"smiles": "CCCC(C)C(=O)OCC(=O)Nc1c(Br)cc(C)cc1Br", "note": "(configuration not stated)", "inhibition": "active: 39.9%"}, {"smiles": "CCOc1ccc(S(=O)(=O)c2cc3cccc(OCC)c3oc2=O)cc1", "inhibition": "0.105%"}, {"smiles": "CC(=O)c1ccc(NC(=O)c2nc(-c3ccccc3)n(-c3ccc(C)cc3)n2)cc1", "inhibition": "3.27%"}, {"smiles": "CCCOC(=O)c1cccc(NC(=O)CSc2nnc3cc(C)c4ccccc4n23)c1", "inhibition": "1.02%"}, {"smiles": "O=C(Cc1ccccc1[N+](=O)[O-])NCc1ccc(Cl)cc1Cl", "inhibition": "active: 32.9%"}, {"smiles": "COc1ccccc1NC(=O)Cn1c(=O)oc2cc(S(=O)(=O)NCc3ccccc3)ccc21", "inhibition": "-5.45%"}, {"smiles": "Clc1ccc2nc(-c3ccc(N4CCOCC4)cc3)c(Nc3ccccc3)n2c1", "inhibition": "2.39%"}]}]}
